Assay in all cases: co-IP; HeLa cells cotransfected (24 or 36 h); lysis buffer 150 mM NaCl, 50 mM Tris-HCl pH 8.0, 5 mM EDTA, 0.5% NP-40; precipitated with anti-Flag antibody and protein G agarose overnight at 4°C; four washes with lysis buffer; immunoblot of the tagged prey
A general note: A western blot detects proteins with antibodies after separation by electrophoresis.

By UniProt entry, the sequences of proteins in these tests, tags left out.
UniProt Q8IUC6: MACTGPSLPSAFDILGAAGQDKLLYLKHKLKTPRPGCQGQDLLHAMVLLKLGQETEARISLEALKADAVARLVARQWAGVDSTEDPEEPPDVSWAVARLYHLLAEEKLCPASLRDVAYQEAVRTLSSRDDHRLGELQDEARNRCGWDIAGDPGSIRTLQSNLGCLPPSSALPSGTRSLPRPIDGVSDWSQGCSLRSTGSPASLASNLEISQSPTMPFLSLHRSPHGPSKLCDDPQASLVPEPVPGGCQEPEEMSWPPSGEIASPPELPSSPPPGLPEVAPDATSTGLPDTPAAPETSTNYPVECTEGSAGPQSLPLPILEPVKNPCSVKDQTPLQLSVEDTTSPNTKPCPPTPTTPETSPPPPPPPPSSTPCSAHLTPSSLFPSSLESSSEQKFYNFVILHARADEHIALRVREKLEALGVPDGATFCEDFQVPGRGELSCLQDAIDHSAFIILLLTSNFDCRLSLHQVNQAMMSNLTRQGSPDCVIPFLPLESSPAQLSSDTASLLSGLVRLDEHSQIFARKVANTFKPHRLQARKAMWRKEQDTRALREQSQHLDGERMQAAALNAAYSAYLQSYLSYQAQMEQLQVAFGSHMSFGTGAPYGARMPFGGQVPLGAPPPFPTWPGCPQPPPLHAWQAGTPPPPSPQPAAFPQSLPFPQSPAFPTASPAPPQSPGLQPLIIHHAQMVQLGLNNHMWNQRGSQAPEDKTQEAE

Assay [1] deals with T1, Flag-tagged DDX21 127–784 (human) (UniProt Q9NR30).
T1 sequence: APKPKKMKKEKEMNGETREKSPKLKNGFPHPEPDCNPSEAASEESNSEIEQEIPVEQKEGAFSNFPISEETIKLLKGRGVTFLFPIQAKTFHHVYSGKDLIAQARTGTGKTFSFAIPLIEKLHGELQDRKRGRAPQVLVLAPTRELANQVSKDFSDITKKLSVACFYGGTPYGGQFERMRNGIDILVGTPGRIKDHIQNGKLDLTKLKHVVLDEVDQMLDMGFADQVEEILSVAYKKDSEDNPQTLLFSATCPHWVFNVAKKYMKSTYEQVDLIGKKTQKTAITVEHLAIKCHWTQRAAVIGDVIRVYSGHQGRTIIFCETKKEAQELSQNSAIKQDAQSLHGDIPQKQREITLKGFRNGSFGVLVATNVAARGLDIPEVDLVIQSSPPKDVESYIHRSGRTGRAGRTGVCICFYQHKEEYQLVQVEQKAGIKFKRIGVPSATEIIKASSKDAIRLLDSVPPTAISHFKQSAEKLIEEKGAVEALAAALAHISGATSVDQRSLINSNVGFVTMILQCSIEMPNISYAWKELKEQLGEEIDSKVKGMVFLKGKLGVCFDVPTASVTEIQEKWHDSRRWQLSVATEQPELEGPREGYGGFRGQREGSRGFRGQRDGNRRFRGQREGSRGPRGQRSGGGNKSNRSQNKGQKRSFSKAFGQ

Assay [2] concerns the target T2, Flag-tagged DDX21 D126A (human) (UniProt Q9NR30).
T2 sequence: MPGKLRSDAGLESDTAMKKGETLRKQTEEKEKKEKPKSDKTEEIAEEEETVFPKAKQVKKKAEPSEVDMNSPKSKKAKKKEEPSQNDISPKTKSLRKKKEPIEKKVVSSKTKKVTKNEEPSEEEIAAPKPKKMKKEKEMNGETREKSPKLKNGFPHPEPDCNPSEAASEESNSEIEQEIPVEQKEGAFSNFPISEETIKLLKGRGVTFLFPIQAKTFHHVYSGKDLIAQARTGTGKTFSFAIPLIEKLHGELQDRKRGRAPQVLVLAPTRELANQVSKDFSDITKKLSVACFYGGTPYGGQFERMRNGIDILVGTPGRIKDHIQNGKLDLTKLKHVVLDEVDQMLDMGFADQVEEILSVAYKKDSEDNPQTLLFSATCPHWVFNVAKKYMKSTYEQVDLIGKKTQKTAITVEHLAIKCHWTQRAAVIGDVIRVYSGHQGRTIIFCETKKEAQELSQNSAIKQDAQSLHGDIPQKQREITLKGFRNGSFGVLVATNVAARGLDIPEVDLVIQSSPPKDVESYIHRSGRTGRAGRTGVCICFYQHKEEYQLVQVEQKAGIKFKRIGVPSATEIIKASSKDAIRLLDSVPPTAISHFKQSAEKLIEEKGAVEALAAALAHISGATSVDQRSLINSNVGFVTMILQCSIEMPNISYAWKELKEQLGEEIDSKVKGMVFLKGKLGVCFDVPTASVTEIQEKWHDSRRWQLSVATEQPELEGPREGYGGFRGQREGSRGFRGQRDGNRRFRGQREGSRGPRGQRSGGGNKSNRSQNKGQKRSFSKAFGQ

The target in assay [3] is T3, Flag-tagged DDX21-X1 (wild type, full length) (human) (UniProt Q9NR30).
T3 sequence: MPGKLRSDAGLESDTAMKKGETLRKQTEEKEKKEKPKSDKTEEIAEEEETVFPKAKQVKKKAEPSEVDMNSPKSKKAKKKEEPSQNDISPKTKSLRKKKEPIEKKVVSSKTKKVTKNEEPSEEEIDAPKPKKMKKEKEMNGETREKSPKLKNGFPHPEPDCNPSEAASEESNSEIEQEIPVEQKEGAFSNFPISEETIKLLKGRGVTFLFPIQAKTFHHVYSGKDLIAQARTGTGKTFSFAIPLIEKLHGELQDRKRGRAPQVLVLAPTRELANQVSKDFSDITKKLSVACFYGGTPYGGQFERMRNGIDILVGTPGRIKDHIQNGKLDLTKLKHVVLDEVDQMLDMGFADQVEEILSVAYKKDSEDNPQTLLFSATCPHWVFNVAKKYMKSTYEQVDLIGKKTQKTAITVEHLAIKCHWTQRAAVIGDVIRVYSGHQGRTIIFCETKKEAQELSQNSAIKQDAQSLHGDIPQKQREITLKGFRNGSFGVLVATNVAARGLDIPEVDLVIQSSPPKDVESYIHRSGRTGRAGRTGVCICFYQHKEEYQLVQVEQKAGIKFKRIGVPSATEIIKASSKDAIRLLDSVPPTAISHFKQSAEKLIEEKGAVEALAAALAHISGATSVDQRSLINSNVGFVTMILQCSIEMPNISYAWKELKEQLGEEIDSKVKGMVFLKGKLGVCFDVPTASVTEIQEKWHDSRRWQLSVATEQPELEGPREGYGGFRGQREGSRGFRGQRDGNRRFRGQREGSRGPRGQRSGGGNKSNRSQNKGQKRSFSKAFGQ

Assay [4] concerns the target T4, Flag-tagged DDX21 1–125 (human) (UniProt Q9NR30).
T4 sequence: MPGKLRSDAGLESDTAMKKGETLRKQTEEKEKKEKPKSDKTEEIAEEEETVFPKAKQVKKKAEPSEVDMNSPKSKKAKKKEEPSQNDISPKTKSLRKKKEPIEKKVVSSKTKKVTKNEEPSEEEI

These are yes or no findings as the source states them, for the method shown. Binding seen in cells or lysates may run through a third protein. Some results given as binding are weak or reduced against the parent protein; the word gives no strength. Sequences can lack the tags named with a protein.

Turning to “HA-tagged TRIF (from UniProt Q8IUC6 1-712)”, the binding result was “binds weakly” in assay [1] and “binds” in assay [2].

B1: HA-tagged DDX1 (protein, UniProt Q92499 1-740)
chain: MAAFSEMGVMPEIAQAVEEMDWLLPTDIQAESIPLILGGGDVLMAAETGSGKTGAFSIPVIQIVYETLKDQQEGKKGKTTIKTGASVLNKWQMNPYDRGSAFAIGSDGLCCQSREVKEWHGCRATKGLMKGKHYYEVSCHDQGLCRVGWSTMQASLDLGTDKFGFGFGGTGKKSHNKQFDNYGEEFTMHDTIGCYLDIDKGHVKFSKNGKDLGLAFEIPPHMKNQALFPACVLKNAELKFNFGEEEFKFPPKDGFVALSKAPDGYIVKSQHSGNAQVTQTKFLPNAPKALIVEPSRELAEQTLNNIKQFKKYIDNPKLRELLIIGGVAARDQLSVLENGVDIVVGTPGRLDDLVSTGKLNLSQVRFLVLDEADGLLSQGYSDFINRMHNQIPQVTSDGKRLQVIVCSATLHSFDVKKLSEKIMHFPTWVDLKGEDSVPDTVHHVVVPVNPKTDRLWERLGKSHIRTDDVHAKDNTRPGANSPEMWSEAIKILKGEYAVRAIKEHKMDQAIIFCRTKIDCDNLEQYFIQQGGGPDKKGHQFSCVCLHGDRKPHERKQNLERFKKGDVRFLICTDVAARGIDIHGVPYVINVTLPDEKQNYVHRIGRVGRAERMGLAISLVATEKEKVWYHVCSSRGKGCYNTRLKEDGGCTIWYNEMQLLSEIEEHLNCTISQVEPDIKVPVDEFDGKVTYGQKRAAGGGSYKGHVDILAPTVQELAALEKEAQTSFLHLGYLPNQLFRTF
As to B1, the binding entry in assay [1] is listed as “binds weakly”; in assay [2], “binds”.

B2: HA-tagged DDX21 1–125 (domain or fragment, UniProt Q9NR30-1 1-125)
chain: MPGKLRSDAGLESDTAMKKGETLRKQTEEKEKKEKPKSDKTEEIAEEEETVFPKAKQVKKKAEPSEVDMNSPKSKKAKKKEEPSQNDISPKTKSLRKKKEPIEKKVVSSKTKKVTKNEEPSEEEI
As for B2, the binding result in assay [1], in assay [3] and in assay [4] was “no binding” in each case.

B3: HA-tagged WT DDX21 (protein, UniProt Q9NR30-1 1-783)
chain: MPGKLRSDAGLESDTAMKKGETLRKQTEEKEKKEKPKSDKTEEIAEEEETVFPKAKQVKKKAEPSEVDMNSPKSKKAKKKEEPSQNDISPKTKSLRKKKEPIEKKVVSSKTKKVTKNEEPSEEEIDAPKPKKMKKEKEMNGETREKSPKLKNGFPHPEPDCNPSEAASEESNSEIEQEIPVEQKEGAFSNFPISEETIKLLKGRGVTFLFPIQAKTFHHVYSGKDLIAQARTGTGKTFSFAIPLIEKLHGELQDRKRGRAPQVLVLAPTRELANQVSKDFSDITKKLSVACFYGGTPYGGQFERMRNGIDILVGTPGRIKDHIQNGKLDLTKLKHVVLDEVDQMLDMGFADQVEEILSVAYKKDSEDNPQTLLFSATCPHWVFNVAKKYMKSTYEQVDLIGKKTQKTAITVEHLAIKCHWTQRAAVIGDVIRVYSGHQGRTIIFCETKKEAQELSQNSAIKQDAQSLHGDIPQKQREITLKGFRNGSFGVLVATNVAARGLDIPEVDLVIQSSPPKDVESYIHRSGRTGRAGRTGVCICFYQHKEEYQLVQVEQKAGIKFKRIGVPSATEIIKASSKDAIRLLDSVPPTAISHFKQSAEKLIEEKGAVEALAAALAHISGATSVDQRSLINSNVGFVTMILQCSIEMPNISYAWKELKEQLGEEIDSKVKGMVFLKGKLGVCFDVPTASVTEIQEKWHDSRRWQLSVATEQPELEGPREGYGGFRGQREGSRGFRGQRDGNRRFRGQREGSRGPRGQRSGGGNKSNRSQNKGQKRSFSKAFGQ
Take B3: the binding result in assay [1] was “binds”; in assay [3] it was “binds”; in assay [4], “no binding”.

B4: HA-tagged DDX21 127–784 (domain or fragment, UniProt Q9NR30-1 127-783)
chain: APKPKKMKKEKEMNGETREKSPKLKNGFPHPEPDCNPSEAASEESNSEIEQEIPVEQKEGAFSNFPISEETIKLLKGRGVTFLFPIQAKTFHHVYSGKDLIAQARTGTGKTFSFAIPLIEKLHGELQDRKRGRAPQVLVLAPTRELANQVSKDFSDITKKLSVACFYGGTPYGGQFERMRNGIDILVGTPGRIKDHIQNGKLDLTKLKHVVLDEVDQMLDMGFADQVEEILSVAYKKDSEDNPQTLLFSATCPHWVFNVAKKYMKSTYEQVDLIGKKTQKTAITVEHLAIKCHWTQRAAVIGDVIRVYSGHQGRTIIFCETKKEAQELSQNSAIKQDAQSLHGDIPQKQREITLKGFRNGSFGVLVATNVAARGLDIPEVDLVIQSSPPKDVESYIHRSGRTGRAGRTGVCICFYQHKEEYQLVQVEQKAGIKFKRIGVPSATEIIKASSKDAIRLLDSVPPTAISHFKQSAEKLIEEKGAVEALAAALAHISGATSVDQRSLINSNVGFVTMILQCSIEMPNISYAWKELKEQLGEEIDSKVKGMVFLKGKLGVCFDVPTASVTEIQEKWHDSRRWQLSVATEQPELEGPREGYGGFRGQREGSRGFRGQRDGNRRFRGQREGSRGPRGQRSGGGNKSNRSQNKGQKRSFSKAFGQ
B4: the binding result was “binds” in assay [1], “binds” in assay [3] and “no binding” in assay [4].

For the origin of these results see PMC8262918.
